Source: PubChem BioAssay AID504332 (National Center for Advancing Translational Sciences (NCATS), 2011)
About 31,000 (8.9%) of roughly 350,000 compounds were called active. The inconclusive results got no clear call from the source; some entries with a clear call stand among them for comparison. The call rests on the fitted dose curve; in most records, active means well fitted inhibition curve with a large enough effect; inconclusive means small, poorly fitted or top-dose-only effect; inactive means no such curve, though single readings can be large or run the other way. Where the call is inconclusive, the potency comes from a doubtful curve fit.

What follows are compounds tested against Histone-lysine N-methyltransferase EHMT2 (Homo sapiens) (UniProt Q96KQ7) (assay: qHTS Assay for Inhibitors of Histone Lysine Methyltransferase G9a). Details: G9a H3K9 monomethylation, AlphaScreen, 2 h; activity, negative = inhibition: at 59 µM (top of the series) unless noted.
Method in brief: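 Using a bead-based AlphaScreen, monomethylated H3K9 product from 2 h room-temperature reactions (G9a 20 nM, peptide 500 nM, SAM 20 uM) was detected with 0.5 ug/mL rabbit anti-H3K9me1 antibody.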
Further: nearly all actives have a fitted effect of over 75% in size.
On the % scale 0 is the no-effect control and ±100 the full control effect; potency means the concentration at half of the fitted maximal effect; tags describe the fitted curve by direction and shape.

Chain of UniProt Q96KQ7 (Q96KQ7 whole entry, looked up): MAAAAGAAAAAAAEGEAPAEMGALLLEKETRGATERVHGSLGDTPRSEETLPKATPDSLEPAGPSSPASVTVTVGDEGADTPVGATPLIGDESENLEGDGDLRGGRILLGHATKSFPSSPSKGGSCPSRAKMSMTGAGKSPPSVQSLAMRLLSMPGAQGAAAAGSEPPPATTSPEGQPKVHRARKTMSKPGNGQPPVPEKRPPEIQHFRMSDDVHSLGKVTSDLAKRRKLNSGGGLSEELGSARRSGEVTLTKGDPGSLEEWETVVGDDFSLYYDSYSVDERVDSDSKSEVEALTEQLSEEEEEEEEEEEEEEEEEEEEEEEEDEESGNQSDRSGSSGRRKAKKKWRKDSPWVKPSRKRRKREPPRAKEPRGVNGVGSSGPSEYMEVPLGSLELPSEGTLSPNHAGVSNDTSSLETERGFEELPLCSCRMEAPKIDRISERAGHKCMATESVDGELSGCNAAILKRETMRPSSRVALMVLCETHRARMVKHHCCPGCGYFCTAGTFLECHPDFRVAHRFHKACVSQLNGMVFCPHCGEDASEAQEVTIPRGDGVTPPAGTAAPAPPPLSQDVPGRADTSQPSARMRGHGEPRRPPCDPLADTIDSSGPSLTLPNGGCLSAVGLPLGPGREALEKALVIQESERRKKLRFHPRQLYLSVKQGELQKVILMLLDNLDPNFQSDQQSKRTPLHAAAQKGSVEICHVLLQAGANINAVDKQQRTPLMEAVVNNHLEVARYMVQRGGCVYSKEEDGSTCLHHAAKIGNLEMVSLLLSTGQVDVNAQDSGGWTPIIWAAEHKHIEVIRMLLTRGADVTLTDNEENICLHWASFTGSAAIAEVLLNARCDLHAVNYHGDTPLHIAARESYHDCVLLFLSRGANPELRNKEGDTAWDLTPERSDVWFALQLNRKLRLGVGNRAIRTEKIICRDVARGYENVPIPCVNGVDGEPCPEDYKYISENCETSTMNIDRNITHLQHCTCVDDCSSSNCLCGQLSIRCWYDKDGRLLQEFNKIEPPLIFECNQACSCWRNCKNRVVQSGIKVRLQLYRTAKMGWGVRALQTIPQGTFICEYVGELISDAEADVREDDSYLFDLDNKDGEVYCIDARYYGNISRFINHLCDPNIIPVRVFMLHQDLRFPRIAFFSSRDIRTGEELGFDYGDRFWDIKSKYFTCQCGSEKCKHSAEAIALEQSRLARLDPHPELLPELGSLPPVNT

Question: Which Potency does the source give for `COc1ccc(C(=O)Nc2ccc3nc(C)sc3c2)cc1OC` here?
Answer: inactive

Question: For `CN(C)CCCNc1ncnc2sc(-c3ccccc3)cc12`, which Potency is on record?
Answer: inconclusive: 2.24 µM [inhibitor, partial curve, poor fit]

Question: For `COc1ccccc1-n1c(-c2cn(C)nc2C)n[nH]c1=S`, which Potency is on record?
Answer: active: 7.08 µM

Question: `COc1cc(SC)ccc1C(=O)N1CC(C)OC(C)C1` (stereo not drawn) was tested. Which Potency did it give?
Answer: inactive

Question: For `O=C(CN1C(=O)c2cccc3cccc1c23)NCc1ccc2c(c1)OCO2`, which Potency is on record?
Answer: inconclusive: 79.4 µM [inhibitor, single point]

Question: For `COc1cccc(C2CC(c3cccs3)=NN2C(=O)CSC2=NCCS2)c1OC` (stereo not drawn), which Potency is on record?
Answer: inactive

Question: For `Cc1ccc(Cn2cc(CCC(=O)NCc3ccc(OC(C)C)cc3)c3ccccc32)cc1`, which Potency is on record?
Answer: inactive

Question: Which Potency does the source give for `CCS(=O)(=O)N1CCN(C(=O)c2ccccc2[N+](=O)[O-])CC1` here?
Answer: inconclusive: 56.2 µM [inhibitor, partial curve, poor fit]

Question: `CCCCNC(=O)C(CC)Sc1nc2ccccc2c(=O)n1CCc1ccc(OC)c(OC)c1` (stereo not drawn) was tested. Which Potency did it give?
Answer: inactive

Question: Which Potency does the source give for `COCCN(CCOC)c1ncnc2c1c(-c1ccccc1)cn2-c1ccc(C)c(Cl)c1` here?
Answer: inactive

Question: How did the Potency turn out when `Nc1c(C(=O)NCc2ccco2)nnn1CC(=O)Nc1ccccc1` was run?
Answer: inactive

Question: Which Potency does the source give for `C#CCSc1nnc(CSc2nc3ccccc3s2)n1-c1ccccc1` here?
Answer: inconclusive: 5.01 µM [inhibitor, full curve, poor fit]

Question: How did the Potency turn out when `Cc1nccn1CCOc1ccc(Cl)cc1` was run?
Answer: active: 8.91 µM

Question: With `COc1ccc(C)cc1NC(=O)c1ccc2c(c1)nnn2C1CCCC1` as the compound, how does the Potency read?
Answer: inactive

Question: With `COc1cc(NS(=O)(=O)c2ccc(N/C=C\C(=O)c3ccc(OC)c(OC)c3)cc2)nc(OC)n1` as the compound, how does the Potency read?
Answer: inconclusive: 15.8 µM [inhibitor, single point]

Question: Which Potency does the source give for `Cc1oc(C)c2c(=O)ccc3c(c12)OC(N)=C(C#N)C3c1ccc(F)cc1` (stereo not drawn) here?
Answer: inconclusive: 14.1 µM [inhibitor, full curve, poor fit]

Question: For `CCc1ccc(NC(=O)Cn2c(-c3cncs3)nc3ccccc32)cc1`, which Potency is on record?
Answer: inactive

Question: How did the Potency turn out when `COc1ccc(NC(=O)CSc2nc3sc4c(c3c(=O)n2-c2ccc(OC)cc2)CCN(C)C4)cc1` was run?
Answer: inconclusive: 39.8 µM [inhibitor, full curve, poor fit]

Question: How did the Potency turn out when `CC(C)(CNC(=O)Cc1ccc(Br)cc1)N1CCOCC1` was run?
Answer: inactive

Question: With `COc1ccc(/C=C/C2=CC(C)(C)NC(=S)N2)cc1OC` as the compound, how does the Potency read?
Answer: active: 44.7 µM

Question: For `O=C(Nc1ccc(Br)cc1)c1cccc(N2C(=O)C3C4CCC(C4)C3C2=O)c1` (stereo not drawn), which Potency is on record?
Answer: inactive

Question: `Cc1ccc2oc(=O)c3cc(C(=O)NCCN4CCc5ccccc5C4)sc3c2c1` was tested. Which Potency did it give?
Answer: active: 50.1 µM

Question: For `O=C(COC(=O)c1cc(S(=O)(=O)N2CCOCC2)ccc1Cl)NCCc1ccccc1`, which activity, negative = inhibition is on record?
Answer: inactive: -2.95% [at 12.7 µM]

Question: `CNS(=O)(=O)c1cccc(C(=O)OCC(=O)/C=C2/N(C)c3ccccc3C2(C)C)c1` was tested. Which Potency did it give?
Answer: inactive

Question: For `CC1=NN(c2ccccc2)C(=O)C1C(=O)C(=O)Nc1ccc(F)cc1` (stereo not drawn), which Potency is on record?
Answer: active: 35.5 µM

Question: With `COCCNC(=S)NNC(=O)CSCc1ccc(Cl)cc1Cl` as the compound, how does the Potency read?
Answer: inconclusive: 50.1 µM [inhibitor, partial curve, poor fit]

Question: With `N#Cc1ccccc1S(=O)(=O)N1CCC(C(=O)Nc2cccc(C(=O)NC3CC3)c2)CC1` as the compound, how does the Potency read?
Answer: inconclusive: 79.4 µM [inhibitor, single point]

Question: Which Potency does the source give for `O=C1/C(=C/c2c[nH]c3ccccc23)CCC/C1=C\c1c[nH]c2ccccc12` here?
Answer: inconclusive: 15.8 µM [inhibitor, single point]

Question: Which Potency does the source give for `Cc1ccc2[nH]c(=O)c3cc(C(=O)NCCc4ccc(Cl)cc4)sc3c2c1` here?
Answer: inactive

Question: How did the Potency turn out when `COc1ccc2[nH]c3c(=O)n(Cc4ccc(C(=O)N5CCC(C(N)=O)CC5)cc4)c(=S)[nH]c3c2c1` was run?
Answer: active: 3.16 µM

Question: For `Cc1cc(=O)oc(C)c1C(=O)NCc1ccccn1`, which Potency is on record?
Answer: active: 1.58 µM

Question: How did the Potency turn out when `CCc1ccc(NC(=O)c2cnc3sc(N4CCCC4)nn3c2=O)cc1` was run?
Answer: inactive

Question: For `COc1cccc(CNC(=O)c2ccc(Cl)c(NC3=NC4CS(=O)(=O)CC4S3)c2)c1` (stereo not drawn), which Potency is on record?
Answer: inactive

Question: Which Potency does the source give for `CCN(Cc1ccccc1)C(=O)c1cccc(S(=O)(=O)N2CCN(c3ccc(F)cc3)CC2)c1` here?
Answer: inconclusive: 79.4 µM [inhibitor, partial curve, poor fit]

Question: For `Cn1ccnc1C(O)c1ccccc1` (stereo not drawn), which Potency is on record?
Answer: inconclusive: 31.6 µM [inhibitor, single point]

Question: With `Cc1ccc(S(=O)(=O)N/N=C\C=C\c2ccccc2)cc1` as the compound, how does the Potency read?
Answer: inconclusive: 50.1 µM [inhibitor, partial curve, poor fit]

Question: For `Cc1ccc(Cl)c(OCCCCN(C)Cc2ccccc2)c1`, which Potency is on record?
Answer: active: 10 µM

Question: `Cc1ccc2nc3c(c(Nc4ccc(O)cc4)c2c1)CCC3` was tested. Which Potency did it give?
Answer: inconclusive: 56.2 µM [inhibitor, partial curve, poor fit]

Question: For `CCN1CCc2c(sc(NC(=S)NC(=O)c3ccc(Cl)cc3)c2C(N)=O)C1`, which Potency is on record?
Answer: active: 31.6 µM

Question: Which Potency does the source give for `Cc1ccc(C(=O)C[n+]2cc(-c3ccc(C)cc3)n3c2CCCCC3)cc1` here?
Answer: inconclusive: 28.2 µM [inhibitor, partial curve]

Question: `CSCC[C@H](NC(=O)c1cccc([N+](=O)[O-])c1C)c1nc2ccccc2[nH]1` was tested. Which Potency did it give?
Answer: inconclusive: 63.1 µM [inhibitor, single point]

Question: For `COc1cccc2c(=O)c3cccc(N)c3[nH]c12`, which Potency is on record?
Answer: active: 25.1 µM

Question: For `COc1ccccc1NC(=O)C1CCC(CNS(=O)(=O)c2ccc3c(c2)CC(C)N3C(C)=O)CC1` (stereo not drawn), which Potency is on record?
Answer: inactive

Question: With `O=C1Nc2ccccc2C1c1ncc(C(F)(F)F)cc1Cl` (stereo not drawn) as the compound, how does the activity, negative = inhibition read?
Answer: inactive: 8.32% [at 2.33 µM]

Question: `O=C(NC(=S)NNC(=O)c1ccccc1O)c1cccnc1` was tested. Which Potency did it give?
Answer: active: 12.6 µM

Question: `O=S1(=O)N=C(Oc2cccc3ccccc23)c2ccccc21` was tested. Which Potency did it give?
Answer: inconclusive: 39.8 µM [inhibitor, single point]

Question: `CCN(CC)CCn1c(=S)[nH]c2cc(C(=O)N3CC(C)CC(C)C3)ccc2c1=O` (stereo not drawn) was tested. Which Potency did it give?
Answer: inconclusive: 50.1 µM [inhibitor, partial curve, poor fit]

Question: Which Potency does the source give for `COc1ccc(NCc2cc3ccc(OC)cc3n(CC(=O)Nc3cc(Cl)ccc3C)c2=O)cc1` here?
Answer: inconclusive: 3.55 µM [inhibitor, partial curve, poor fit]
